Assay results from patent US20230331822A1 (published 2023).

T1: HCoV-OC43 Spike protein, full length, C-terminally fused with EGFP (HCoV-OC43, UniProt P36334 14-1353)
T1 construct: whole, on cells
T1 sequence: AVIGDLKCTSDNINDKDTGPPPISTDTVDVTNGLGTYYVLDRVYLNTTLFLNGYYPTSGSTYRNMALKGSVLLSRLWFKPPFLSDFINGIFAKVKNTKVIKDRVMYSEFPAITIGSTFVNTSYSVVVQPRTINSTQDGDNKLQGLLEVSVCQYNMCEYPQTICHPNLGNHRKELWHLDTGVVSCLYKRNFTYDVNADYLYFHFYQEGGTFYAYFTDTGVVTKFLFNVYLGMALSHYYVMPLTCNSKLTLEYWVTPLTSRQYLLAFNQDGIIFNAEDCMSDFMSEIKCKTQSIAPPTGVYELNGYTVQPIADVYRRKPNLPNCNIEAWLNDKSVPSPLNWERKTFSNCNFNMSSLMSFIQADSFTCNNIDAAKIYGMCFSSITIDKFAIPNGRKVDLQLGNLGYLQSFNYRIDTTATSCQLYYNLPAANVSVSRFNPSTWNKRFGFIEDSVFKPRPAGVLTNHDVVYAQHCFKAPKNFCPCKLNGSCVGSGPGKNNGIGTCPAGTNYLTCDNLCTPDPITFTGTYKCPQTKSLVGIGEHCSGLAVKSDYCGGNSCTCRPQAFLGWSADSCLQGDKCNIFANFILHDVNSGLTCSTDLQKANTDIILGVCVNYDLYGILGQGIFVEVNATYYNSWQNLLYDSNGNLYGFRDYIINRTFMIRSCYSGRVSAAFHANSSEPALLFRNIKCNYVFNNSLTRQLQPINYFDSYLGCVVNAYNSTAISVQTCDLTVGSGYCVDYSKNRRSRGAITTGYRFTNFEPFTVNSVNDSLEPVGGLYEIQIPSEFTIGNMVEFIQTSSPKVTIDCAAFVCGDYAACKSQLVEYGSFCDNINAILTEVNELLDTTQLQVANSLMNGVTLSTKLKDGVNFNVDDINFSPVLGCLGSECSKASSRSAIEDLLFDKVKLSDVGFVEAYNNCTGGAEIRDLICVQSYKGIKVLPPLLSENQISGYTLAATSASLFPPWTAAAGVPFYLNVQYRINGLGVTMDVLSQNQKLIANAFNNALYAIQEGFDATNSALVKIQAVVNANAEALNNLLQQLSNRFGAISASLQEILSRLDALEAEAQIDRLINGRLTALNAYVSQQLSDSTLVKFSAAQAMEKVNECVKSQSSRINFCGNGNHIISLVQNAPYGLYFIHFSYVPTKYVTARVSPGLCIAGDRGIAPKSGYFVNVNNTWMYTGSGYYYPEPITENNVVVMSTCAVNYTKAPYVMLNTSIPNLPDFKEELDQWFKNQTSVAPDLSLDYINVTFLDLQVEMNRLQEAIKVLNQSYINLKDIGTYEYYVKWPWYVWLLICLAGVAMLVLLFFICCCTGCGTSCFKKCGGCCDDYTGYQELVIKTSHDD

T2: HCoV-NL63 Spike protein, full length, C-terminally fused with EGFP (HCoV-NL63, UniProt Q6Q1S2 19-1356)
T2 construct: whole, on cells
T2 sequence: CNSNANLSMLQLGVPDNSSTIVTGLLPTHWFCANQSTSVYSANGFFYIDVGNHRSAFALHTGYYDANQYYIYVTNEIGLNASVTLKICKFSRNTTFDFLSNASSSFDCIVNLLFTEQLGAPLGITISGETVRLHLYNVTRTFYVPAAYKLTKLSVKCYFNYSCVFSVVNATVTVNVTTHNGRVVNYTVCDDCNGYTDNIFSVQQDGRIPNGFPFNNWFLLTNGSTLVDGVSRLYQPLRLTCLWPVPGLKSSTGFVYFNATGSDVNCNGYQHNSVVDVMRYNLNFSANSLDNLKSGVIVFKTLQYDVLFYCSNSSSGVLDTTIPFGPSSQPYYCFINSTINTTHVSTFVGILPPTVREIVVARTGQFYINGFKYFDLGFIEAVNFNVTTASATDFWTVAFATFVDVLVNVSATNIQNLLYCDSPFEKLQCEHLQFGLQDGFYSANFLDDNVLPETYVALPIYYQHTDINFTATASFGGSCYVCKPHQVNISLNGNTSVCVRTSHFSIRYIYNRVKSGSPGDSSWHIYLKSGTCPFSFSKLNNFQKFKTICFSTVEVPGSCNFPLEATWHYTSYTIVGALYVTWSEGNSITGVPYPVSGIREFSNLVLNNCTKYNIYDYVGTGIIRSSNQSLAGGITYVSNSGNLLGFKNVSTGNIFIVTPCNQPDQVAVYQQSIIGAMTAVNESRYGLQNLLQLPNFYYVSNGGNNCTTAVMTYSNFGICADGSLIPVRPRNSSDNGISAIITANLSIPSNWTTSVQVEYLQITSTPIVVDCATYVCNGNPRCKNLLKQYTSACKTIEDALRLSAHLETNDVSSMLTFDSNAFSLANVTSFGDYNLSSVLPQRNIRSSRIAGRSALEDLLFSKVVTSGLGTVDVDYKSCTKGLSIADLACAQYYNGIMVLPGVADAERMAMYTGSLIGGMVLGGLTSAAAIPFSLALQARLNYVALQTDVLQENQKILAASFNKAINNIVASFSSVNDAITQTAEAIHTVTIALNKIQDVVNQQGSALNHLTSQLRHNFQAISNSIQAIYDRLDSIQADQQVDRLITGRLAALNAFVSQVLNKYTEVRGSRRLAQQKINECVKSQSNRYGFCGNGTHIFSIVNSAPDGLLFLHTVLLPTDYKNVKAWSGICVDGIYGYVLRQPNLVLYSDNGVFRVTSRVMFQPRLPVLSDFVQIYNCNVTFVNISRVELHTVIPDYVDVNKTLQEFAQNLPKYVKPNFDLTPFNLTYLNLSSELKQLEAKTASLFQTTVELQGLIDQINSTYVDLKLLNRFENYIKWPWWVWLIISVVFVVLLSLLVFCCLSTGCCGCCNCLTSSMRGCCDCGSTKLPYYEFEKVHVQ


Columns and labels:
[1] = target: T1, HCoV-OC43 Spike protein, full length, …; assay: flow cytometry, HEK293 cells expressing full-length Spike-EGFP, anti-hIg-PE
[2] = target: T2, HCoV-NL63 Spike protein, full length, …; assay: as above

| Binder | binding result [1] | binding result [2] |
| --- | --- | --- |
| COV2-22-8-Fc (Fc fusion) QLQLVESGGDLVQPGESLRLSCVASGFTLDRYAIGWFRQAPGKEREGVSCISSGGTTSYADSVRGRFTISRENAKNAVYLEMNSLKPEDTAVYYCAAGTQLRYGCSRQARRYDYWGQGTQVTVSS[human IgG1 Fc with changes not listed] | no binding | no binding |
| COV2-121-15-Fc (Fc fusion) QLQLVESGGDLVQPGESLRLSCVASFDDFAIGWIGWFRQAPGKEREGVSCSARGIVNTSYADSVRGRFTISRENAKNAVYLEMNSLKPEDTAVYYCAALVGLNDRSLPHEAEEYDYWGQGTQVTVSS[human IgG1 Fc with changes not listed] | no binding | no binding |
| COV2-136-12-Fc (Fc fusion) QLQLVESGGDLVQPGESLRLSCVASGFTFHYYAIGWFRQAPGKEREGVSCISSGGGRTSYADSVRGRFTISRENAKNAVYLEMNSLKPEDTAVYYCAALQGSLHYCSGLVGEYEYWGQGTQVTVSS[human IgG1 Fc with changes not listed] | no binding | no binding |
| COV2-122-10-Fc (Fc fusion) QLQLVESGGDLVQPGESLRLSCVASGATSDIYAIGWFRQAPGKEREGVSCISPSGGSTSYADSVRGRFTISRENAKNAVYLEMNSLKPEDTAVYYCAAASPSWHYCSGYEHEYDDWGQGTQVTVSS[human IgG1 Fc with changes not listed] | no binding | no binding |
| COV2-353-14-Fc (Fc fusion) QLQLVESGGDLVQPGESLRLSCVASGFRLGGYAIGWFRQAPGKEREGVSCISGSGIISSYADSVRGRFTISRENAKNAVYLEMNSLKPEDTAVYYCAAPSGSSYGSRRLPCGIDSQDYQTWGQGTQVTVSS[human IgG1 Fc with changes not listed] | no binding | no binding |
| COV2-115-7-Fc (Fc fusion) QLQLVESGGDLVQPGESLRLSCVASGFSLDGYAIGWFRQAPGKEREGVSCIGRLGTTTSYADSVRGRFTISRENAKNAVYLEMNSLKPEDTAVYYCAAKRSTWFGCSTLDDYDYWGQGTQVTVSS[human IgG1 Fc with changes not listed] | no binding | no binding |
| COV2-324-16-Fc (Fc fusion) QLQLVESGGDLVQPGESLRLSCVASGFTFDDYSIGWFRQAPGKEREGVSCFSSLDGSTSYADSVRGRFTISRENAKNAVYLEMNSLKPEDTAVYYCAATRGSSWYWYRPSEYDYWGQGTQVTVSS[human IgG1 Fc with changes not listed] | no binding | no binding |
| COV2-237-13-Fc (Fc fusion) QLQLVESGGDLVQPGESLRLSCVASFKSYHIAWIGWFRQAPGKEREGVSCSLTGASITSYADSVRGRFTISRENAKNAVYLEMNSLKPEDTAVYYCAARDYASSLYCSRNEAMYAYWGQGTQVTVSS[human IgG1 Fc with changes not listed] | no binding | no binding |
| COV2-143-4-Fc (Fc fusion) QLQLVESGGDLVQPGESLRLSCVASGLTLNNNTIGWFRQAPGKEREGVSCISPSGIVTSYADSVRGRFTISRENAKNAVYLEMNSLKPEDTAVYYCAVLQWNGAGLPSPLGSWGQGTQVTVSS[human IgG1 Fc with changes not listed] | no binding | no binding |
| COV2-13-5-Fc (Fc fusion) QLQLVESGGDLVQPGESLRLSCVASGFTLGNYEIGWFRQAPGKEREGVSCISRSGVIFSYADSVRGRFTISRENAKNAVYLEMNSLKPEDTAVYYCAARFRAGLVQSLCQSTPEFYQDWGQGTQVTVSS[human IgG1 Fc with changes not listed] | no binding | no binding |
| COV2-356-6-Fc (Fc fusion) QLQLVESGGDLVQPGESLRLSCVASGFTLGNYAIGWFRQAPGKEREGVSCISLSGDIISYADSVRGRFTISRENAKNAVYLEMNSLKPEDTAVYYCAAPFPSLLYCSLCPSNPEFCRHWGQGTQVTVSS[human IgG1 Fc with changes not listed] | no binding | no binding |
